According to the supplement of paper PMC4604168 (melanoma cell lines):
The list shows a part of the results. Many values rest on one well or one pass, so single values are uncertain.

test system: 501Mel; experiment: cell count relative to DMSO control; melanoma cells; higher = more viable cells; settings: library dose: low library concentration; 72 h
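Also: cell number obtained by counting DAPI-stained nuclei in high-throughput microscope images with image analysis software, screen run in 1,536-well plates.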

Row | SMILES | cell count
1 | NC1(c2ccc(-c3nc4ccn5c(=O)[nH]nc5c4cc3-c3ccccc3)cc2)CCC1 + COC(=O)c1sccc1S(=O)(=O)Nc1ccc(Nc2ccccc2)cc1OC [GSK0660] (first compound 0.4 µM, partner dose 1 µM) | 80.1%
2 | CCCS(=O)(=O)Nc1ccc(F)c(C(=O)c2c[nH]c3ncc(Cl)cc23)c1F + O=C(O)C(=O)Nc1sc2c(c1C(=O)O)CCNC2 [TCS401] (first compound 0.08 µM, partner dose 1.66667 µM) | 110%
3 | CS(=O)(=O)c1ccc(C(=O)Nc2ccc(Cl)c(-c3ccccn3)c2)c(Cl)c1 [vismodegib] + O=C(O)C(=O)Nc1sc2c(c1C(=O)O)CCNC2 [TCS401] (first compound 1 µM, partner dose 1.66667 µM) | 120%
4 | C=C(c1ccc(C(=O)O)cc1)c1cc2c(cc1C)C(C)(C)CCC2(C)C [Bexarotene] + N#Cc1c(O)c2c(-c3ccc(-c4ccccc4O)cc3)csc2[nH]c1=O [A769662] (first compound 2 µM, partner dose 2 µM) | 77.6%
5 | C=C(c1ccc(C(=O)O)cc1)c1cc2c(cc1C)C(C)(C)CCC2(C)C [Bexarotene] + COc1ccc(-c2ccc3c(N4CCOCC4)nc(N4C[C@@H](C)O[C@@H](C)C4)nc3n2)cc1CO [KU0063794] (first compound 2 µM, partner dose 0.02 µM) | 116%
6 | CCCS(=O)(=O)Nc1ccc(F)c(C(=O)c2c[nH]c3ncc(Cl)cc23)c1F + COc1ccc(COc2ccc(Cc3cnc(N)nc3N)cc2OC)cc1 [GW2580] (first compound 0.08 µM, partner dose 1 µM) | 124%

test system: A101D; experiment: as above; settings: library dose: low library concentration; 72 h

Row | SMILES | cell count
7 | C=C(c1ccc(C(=O)O)cc1)c1cc2c(cc1C)C(C)(C)CCC2(C)C [Bexarotene] + Cn1cc(/C=C2\C(=O)Nc3cccnc32)c2ccccc21 [GW441756] (first compound 2 µM, partner dose 0.4 µM) | 92.5%
8 | NC1(c2ccc(-c3nc4ccn5c(=O)[nH]nc5c4cc3-c3ccccc3)cc2)CCC1 + CC(C)CCN1c2nc(Nc3cc(F)c(O)c(F)c3)ncc2N(C)C(=O)C1C [BID1870] (first compound 0.4 µM, partner dose 0.2 µM) | 77.2%
9 | CS(=O)(=O)c1ccc(C(=O)Nc2ccc(Cl)c(-c3ccccn3)c2)c(Cl)c1 [vismodegib] + N#Cc1c(O)c2c(-c3ccc(-c4ccccc4O)cc3)csc2[nH]c1=O [A769662] (first compound 1 µM, partner dose 2 µM) | 109%
10 | CN(c1ncccc1CNc1nc(Nc2ccc3c(c2)CC(=O)N3)ncc1C(F)(F)F)S(C)(=O)=O + COC(=O)c1sccc1S(=O)(=O)Nc1ccc(Nc2ccccc2)cc1OC [GSK0660] (first compound 0.08 µM, partner dose 1 µM) | 94.3%
11 | CCCS(=O)(=O)Nc1ccc(F)c(C(=O)c2c[nH]c3ncc(Cl)cc23)c1F + COC(=O)c1sccc1S(=O)(=O)Nc1ccc(Nc2ccccc2)cc1OC [GSK0660] (first compound 0.08 µM, partner dose 1 µM) | 77.5%
12 | NC1(c2ccc(-c3nc4ccn5c(=O)[nH]nc5c4cc3-c3ccccc3)cc2)CCC1 + COc1cc(N2CCC(N3CCN(C)CC3)CC2)ccc1Nc1ncc(Cl)c(Nc2ccccc2S(=O)(=O)C(C)C)n1 [NVP-TAE684] (first compound 0.4 µM, partner dose 0.08 µM) | 95.9%
13 | CS(=O)(=O)c1ccc(C(=O)Nc2ccc(Cl)c(-c3ccccn3)c2)c(Cl)c1 [vismodegib] + CCN(CC)CCCCNc1ncc2cc(-c3cc(OC)cc(OC)c3)c(NC(=O)NC(C)(C)C)nc2n1 [PD173074] (first compound 1 µM, partner dose 0.1 µM) | 97.9%
14 | CCCS(=O)(=O)Nc1ccc(F)c(C(=O)c2c[nH]c3ncc(Cl)cc23)c1F + N#Cc1c(O)c2c(-c3ccc(-c4ccccc4O)cc3)csc2[nH]c1=O [A769662] (first compound 0.08 µM, partner dose 2 µM) | 84.7%
15 | CCCS(=O)(=O)Nc1ccc(F)c(C(=O)c2c[nH]c3ncc(Cl)cc23)c1F + COc1ccc2c(c1)CCC1C2CCC2(C)C(NCCCCCCN3C(=O)C=CC3=O)CCC12 [U73122] (first compound 0.08 µM, partner dose 0.4 µM) | 90%
